Data from PubChem BioAssay AID1508642 (National Center for Advancing Translational Sciences (NCATS), 2021).
Among all 43,000 compounds or so, about 200 (0.47%) were called active. About 12% were inconclusive and are not listed. Calls come from the whole dose curve; as a rule, active = well fitted cell-killing curve with a large enough effect; inconclusive = small, poorly fitted or top-dose-only effect, or effect the other way; inactive = flat fitted curve, though single readings scatter. The list shows a part of the results.

Assay: Cell viability qHTS assay in S16 Pmp22-F2sN cells; note: nearly all actives have a fitted effect of over 65% in size
Settings: S16 Pmp22-F2sN Schwann cells viability, CellTiter-Glo, 24 h; series mostly up to 57.5 µM; activity change, negative = cytotoxicity: at the top concentration
How it was run: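 S16 Pmp22-F2sN Schwann cells (500-1,000/well) in phenol-red-free DMEM with 10% FBS received 23 nL compound by pin tool for 24 h at 37 °C. Viability was then read as CellTiter-Glo luminescence after 15 min at room temperature.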
% is set by controls: 0 for no effect and ±100 for the full control effect.

Structure (SMILES)	activity change, negative = cytotoxicity
O=C(Nc1sc2c(c1C(=O)NCc1cccnc1)CCCC2)c1cc(=O)c2ccccc2o1	inactive: -0.463%
Cc1ccc2nc(COc3ccccc3NC(=O)C(C)(C)C)cc(=O)n2c1	inactive: 2.58%
COc1cccc2c1cc1c(=O)n(CC(=O)NCc3ccc(C)o3)nc(C)n12	inactive: -1.16%
CCOc1ccccc1CNC(=O)C1CCN(c2nnc(-n3c(C)ccc3C)s2)CC1	inactive: -2.38%
CCCCOc1ccc(C2=NC(c3ccncc3)=Nc3ccc(OCC)cc3N2)cc1	inactive: 10.5%
O=C(Cn1c(=O)n(CC2CCC(C(=O)NCCc3ccccc3)CC2)c(=O)c2ccccc21)Nc1ccccc1 (stereo not drawn)	inactive: 14.1%
CCc1ccc(NC(=O)CN2C(=O)C(c3ccc(C)cc3)=NC23CCCCC3)cc1	inactive: -18%
Cc1cccc(Cn2cccc2CNS(=O)(=O)c2ccccc2F)c1	inactive: -16.8%
CCc1ccc(CNC(=O)Cn2nc(C)n3c(cc4cc(C)ccc43)c2=O)cc1	inactive: 1.4%
COc1ccc(NC(=O)C(Cc2ccccc2)NS(=O)(=O)c2ccc3c(c2)CCC(=O)N3)c(OC)c1 (stereo not drawn)	inactive: -15.3%
COc1ccc(NC(=O)CSc2nc3nc(C)c(Cc4ccccc4)c(C)n3n2)cc1OC	inactive: 3.98%
O=C(C1CCN(S(=O)(=O)c2cccc3nonc23)CC1)N1CCN(c2cccc(Cl)c2)CC1	inactive: -22.2%
Cc1ccc(Cn2c(=O)c3ccccc3n3c(-c4cccc(O)c4)nnc23)cc1	inactive: -12.9%
CCN(CC)CCOC(=O)c1ccc(NC(=O)Cn2ncc3c2-c2cc(C)ccc2OC3)cc1	inactive: 0.193%
Cc1nn(-c2ccc(F)cc2)c(-n2cccc2)c1C(=O)NCCc1ccc(Cl)cc1	inactive: -11%
Cc1cc(C)n2nc(CNS(=O)(=O)c3ccc(C)c(C)c3)nc2n1	inactive: -0.724%
CC(C)OCCCn1c(SCC(=O)c2ccccc2)nc2c(sc3ccccc32)c1=O	inactive: 4.43%
Cc1ccc(CN(Cc2ccco2)C(=O)c2ccc(OCC(C)C)cc2)cc1	inactive: -11.3%
COc1ccc(NC(=O)c2c(NC(=O)COc3ccccc3)sc3c2CCC(C(C)(C)C)C3)cc1 (stereo not drawn)	inactive: -4.6%
CCCCN1CCc2nc(Nc3ccc(OC)cc3OC)ncc2C1	inactive: 6.23%
Cc1nc2sccn2c(=O)c1S(=O)(=O)Nc1cc(Cl)ccc1O	inactive: -4.38%
CCOC(=O)c1cc(-c2ccc(F)cc2)n(CC(=O)NC2CCCCCC2)c1C	inactive: -20.3%
CCOc1cccc2c1N[C@@H](c1ccc(C(=O)O)cc1)[C@H]1CC=C[C@@H]21	inactive: -2.8%
Cc1ccc(-n2nc(C)c3c(C)c(CCC(=O)NCc4ccccc4Cl)c(C)nc32)cc1C	inactive: 9.27%

Structure (SMILES)	activity change, negative = cytotoxicity
COc1ccc(-c2cc(-c3ccccc3)nc3c2COc2ccc(F)cc2-3)cc1	inactive: 24.4%
CCN(CC)C(=O)Cn1c(=O)cc(C)c2c(C)nn(-c3ccc(C)cc3)c21	inactive: 1.64%
Cc1ccc(S(=O)(=O)N2CCCc3cc(NS(=O)(=O)c4cc(C)ccc4C)ccc32)cc1	inactive: -8.99%
Cc1ccc(CSc2ncc(Cl)c(C(=O)NCc3ccccc3)n2)cc1	inactive: 9.78%
CC(C)c1nn2c(=O)cc(COC(=O)c3ccc(NC(=O)C4CCCCC4)cc3)nc2s1	inactive: -3.08%
Cc1ccc(C(=O)c2oc3ccccc3c2NC(=O)COc2ccc(C(C)C)cc2)cc1	inactive: 8.72%
O=C(Nc1ccc(S(=O)(=O)Nc2ncccn2)cc1)c1cc(=O)c2ccccc2o1	inactive: 4.02%
COc1ccc(-c2cn3cccnc3n2)cc1NC(=O)Nc1ccc(Cl)cc1	inactive: -5.62%
CCOc1ccc(NC(=O)c2ccc3c(c2)CCN3S(=O)(=O)CC)cc1	inactive: 26.6%
Cc1ccc(-c2nc(NC(=O)CSc3nc(C)nc4sc5c(c34)CCCC5)ns2)cc1	inactive: 16.4%
CCOC(=O)c1cccc(NC(=O)C2Cc3ccccc3N2C(=O)c2ccccc2)c1 (stereo not drawn)	inactive: 2.82%
CCOc1ccc(C(=O)NC2CC(=O)N(c3ccc(C)cc3)C2)cc1OCC (stereo not drawn)	inactive: 3.96%
Cc1cccc(-n2ncc3c(Nc4ccc(C)c(Cl)c4)ncnc32)c1	inactive: 21.5%
COc1ccc(NC(=O)c2c(-c3ccccc3)c(-c3ccccc3)nn(C)c2=O)cc1OC	inactive: -4.02%
Cc1ccc(C)c(Cn2c(=O)n(C(C)C)c(=O)c3oc4ccccc4c32)c1	inactive: 16.5%
Cc1ccccc1CNC(=O)CN1C(=O)C2CCCCN2c2ccc(C(=O)N3CCCC3)cc21 (stereo not drawn)	inactive: 4.4%
CCc1nn(CC(=O)N2CCCCC2)c(=O)c2cc3sc(C)cc3n12	inactive: 10.1%
Cc1ccccc1NC(=O)CCS(=O)(=O)c1cc(Br)cc2c1N(C(=O)C1CC1)CC2	inactive: 0.166%
c1ccc(CN2CCN(c3ncnc4c3cnn4-c3ccccc3)CC2)cc1	inactive: 0.13%
CCc1cccc(NC(=O)C2CCC(CNS(=O)(=O)c3ccc(Br)s3)CC2)c1 (stereo not drawn)	inactive: 3.23%
Cc1ccccc1OCC(=O)Nc1cccc(C(=O)OCc2cc(=O)n3c(C)csc3n2)c1	inactive: 3.13%
Cc1ccc(S(=O)(=O)Cc2ccc(C(=O)N3CCN(c4cccc(Cl)c4)CC3)o2)cc1	inactive: -16.9%
O=C(Cn1c(=O)n(-c2ccc(Cl)cc2)c(=O)c2sc3ccccc3c21)NC1CCCC1	inactive: 11.7%
CCOc1ccc(-c2c(C)nn3c(C)c(C(=O)NCCc4ccc(Cl)cc4)cnc23)cc1OCC	inactive: -0.354%
